For orientation: EC50 means the concentration needed to bring the measured effect to its halfway point. Low values mean higher potency in that assay, high ones lower potency in that assay.

Consider four molecules from patent US20200362003A1 (Genentech, published 2020).

The target of assay [1] is T1, IL-22 RA1 ECD (Homo sapiens (Human), UniProt Q8N6P7 16-228).
T1 construct: also called IL22-RA1 extracellular domain; IL-22R1
T1 sequence: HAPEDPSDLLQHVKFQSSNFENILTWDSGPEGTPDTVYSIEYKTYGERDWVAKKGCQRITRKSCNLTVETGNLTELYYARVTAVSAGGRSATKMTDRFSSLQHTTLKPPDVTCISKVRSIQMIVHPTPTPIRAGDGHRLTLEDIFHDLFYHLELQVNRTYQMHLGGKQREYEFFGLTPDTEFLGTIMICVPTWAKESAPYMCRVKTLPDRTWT
Put plainly: potency binding assay (OD against concentration) on plate-coated IL-22 RA1 ECD; lower panel, legend box. The method, then:
(§1) The IL-22 Fc fusion protein potency assay measures the ability of IL-22 Fc fusion protein to bind to the IL-22 RA1 ECD. In the assay, varying concentrations of IL-22 Fc fusion protein Reference Standard Batch, control, and samples are added to a 96-well plate coated with IL-22 RA1 ECD. Bound IL-22 Fc fusion protein is detected with goat anti-human IgG-horseradish peroxidase (HRP) antibody and a tetramethylbenzidine substrate solution. The results, expressed in optical density (OD) units, are plotted against IL-22 Fc fusion protein concentrations, and a parallel curve program is used to calculate the measured potency of IL-22 Fc fusion protein sample(s) relative to the Reference Standard Batch.
(§2) To investigate the role of the underlying glycan structure on binding activity, the same Clinical Batches as above were treated with PNGase F enzyme to remove all N-glycans and analyzed in the potency assay. The potency of the process control sample, prepared from the Reference Standard Batch through the same treatment as the samples excepting PNGase F addition, was different than the potency of the Reference Standard Batch. […] The process control contained more high molecular weight (HMW) forms and less low molecular weight (LMW) forms than the Reference Standard Batch, as measured by size-exclusion ultra-high-performance liquid chromatography (SE-UHPLC).

For assay [2], the target named is T1, IL-22 RA1 ECD. Briefly: potency binding assay (OD against concentration) on plate-coated IL-22 RA1 ECD; upper panel, legend box. The method, then: as §1, §2
The target of assay [3] is T1, IL-22 RA1 ECD. Briefly: potency binding assay (OD against concentration) on plate-coated IL-22 RA1 ECD; Reference Standard Batch given the same incubations as the samples without PNGase F; lower panel, legend box. The method, then: as §1, §2
Assay [4] has as its target T1, IL-22 RA1 ECD. Briefly: potency binding assay (OD against concentration) on plate-coated IL-22 RA1 ECD after deglycosylation with PNGase F; lower panel, legend box. The method, then:
as §1, §2

B1: IL-22 Fc fusion protein Reference Standard Batch (Fc fusion)
chain: APISSHCRLDKSNFQQPYITNRTFMLAKEASLADNNTDVRLIGEKLFHGVSMSERCYLMKQVLNFTLEEVLFPQSDRFQPYMQEVVPFLARLSNRLSTCHIEGDDLHIQRNVQKLKDTVKKLGESGEIKAIGELDLLFMSLRNACIRV[human IgG4 Fc with S228P N297G (EU numbers) omitted here]
modifications: N-glycans at Asn21, Asn35, Asn64 and Asn143 of the IL-22 part; 7.8 mol NANA per mol fusion protein (Table 14)
B1: the concentration for a half-maximal effect (EC50) turned out to be 0.162 µg/mL with IL-22 RA1 ECD [1] and 0.167 µg/mL with IL-22 RA1 ECD [2].

B2: IL-22 Fc fusion protein process control sample (Fc fusion)
chain: B1 chain
modifications: N-glycans on the IL-22 part; Reference Standard Batch taken through the deglycosylation incubation and purification without PNGase F; glycan composition changed by the treatment
notes: Prepared from m1; held more HMW and less LMW forms than m1 by SE-UHPLC
As to B2, a half-maximal effect with IL-22 RA1 ECD [3] (EC50) was put at 0.089 µg/mL.

B3: Deglycosylated IL-22 Fc fusion protein Clinical Batch 6 (Fc fusion)
chain: B1 chain
modifications: all N-glycans removed with PNGase F (glycosylated Asn becomes Asp)
notes: also called deglycosylated Clinical Batch 6
For the molecule B3, the EC50 in the assay with IL-22 RA1 ECD [4] turned out to be 0.046 µg/mL.

B4: Deglycosylated IL-22 Fc fusion protein Clinical Batch 5 (Fc fusion)
chain: B1 chain
modifications: all N-glycans removed with PNGase F (glycosylated Asn becomes Asp)
notes: also called deglycosylated Clinical Batch 5
In turn, B4 came in with an EC50 in the assay with IL-22 RA1 ECD [4] of 0.044 µg/mL.
